{"source": "the supplement of paper PMC8728848", "assay_in_all_cases": "glycan array binding signal (z-score within array); higher = stronger binding", "conditions_in_all_cases": "glycan notation: IUPAC condensed, linker removed", "key": {"[1]": {"molecular_target": "Fuc(a1-2)[Gal(a1-3)]Gal(b1-4)GlcNAc(b1-2)Man(a1-3)[Fuc(a1-2)[Gal(a1-3)]Gal(b1-4)GlcNAc(b1-2)Man(a1-6)]Man(b1-4)GlcNAc(b1-4)GlcNAc", "summary_of_the_method": "(§1)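 Arrays were curated from the Consortium for Functional Glycomics database, 3228 in total, and kept only where the protein sequence was available. Binding is expressed as a within-array Z-score. This score was averaged across arrays of the same protein sequence at different concentrations or buffers and across linkers, and negative values can be read as non-binding.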"}, "[2]": {"molecular_target": "Fuc(a1-2)[Gal(a1-3)]Gal(b1-4)GlcNAc(b1-2)Man(a1-3)[Fuc(a1-2)[Gal(a1-3)]Gal(b1-4)GlcNAc(b1-2)Man(a1-6)]Man(b1-4)GlcNAc(b1-4)[Fuc(a1-6)]GlcNAc", "summary_of_the_method": "as §1"}, "[3]": {"molecular_target": "Fuc(a1-2)[Gal(a1-3)]Gal(b1-4)GlcNAc(b1-3)GalNAc", "summary_of_the_method": "as §1"}, "[4]": {"molecular_target": "Fuc(a1-2)[Gal(a1-3)]Gal(b1-4)GlcNAc(b1-6)GalNAc", "summary_of_the_method": "as §1"}, "[5]": {"molecular_target": "Fuc(a1-2)[Gal(a1-3)]Gal(b1-4)[Fuc(a1-3)]Glc", "summary_of_the_method": "as §1"}, "[6]": {"molecular_target": "Fuc(a1-2)[Gal(a1-3)]Gal(b1-4)[Fuc(a1-3)]GlcNAc", "summary_of_the_method": "as §1"}, "[7]": {"molecular_target": "Fuc(a1-2)[Gal(a1-3)]Gal(b1-4)[Fuc(a1-3)]GlcNAc(b1-3)GalNAc", "summary_of_the_method": "as §1"}, "[8]": {"molecular_target": "Fuc(a1-2)[Gal(a1-4)]Gal(b1-4)GlcNAc", "summary_of_the_method": "as §1"}, "[9]": {"molecular_target": "Fuc(a1-2)[GalNAc(a1-3)]Gal", "summary_of_the_method": "as §1"}, "[10]": {"molecular_target": "Fuc(a1-2)[GalNAc(a1-3)]Gal(b1-3)GalNAc(a1-3)[Fuc(a1-2)]Gal(b1-4)GlcNAc", "summary_of_the_method": "as §1"}, "[11]": {"molecular_target": "Fuc(a1-2)[GalNAc(a1-3)]Gal(b1-3)GalNAc(b1-3)Gal(a1-4)Gal(b1-4)Glc", "summary_of_the_method": "as §1"}, "[12]": {"molecular_target": "Fuc(a1-2)[GalNAc(a1-3)]Gal(b1-3)GlcNAc", "summary_of_the_method": "as §1"}, "[13]": {"molecular_target": "Fuc(a1-2)[GalNAc(a1-3)]Gal(b1-3)GlcNAc(b1-2)Man(a1-3)[Fuc(a1-2)[GalNAc(a1-3)]Gal(b1-3)GlcNAc(b1-2)Man(a1-6)]Man(b1-4)GlcNAc(b1-4)GlcNAc", "summary_of_the_method": "as §1"}, "[14]": {"molecular_target": "Fuc(a1-2)[GalNAc(a1-3)]Gal(b1-3)GlcNAc(b1-2)Man(a1-3)[Fuc(a1-2)[GalNAc(a1-3)]Gal(b1-3)GlcNAc(b1-2)Man(a1-6)]Man(b1-4)GlcNAc(b1-4)[Fuc(a1-6)]GlcNAc", "summary_of_the_method": "as §1"}, "[15]": {"molecular_target": "Fuc(a1-2)[GalNAc(a1-3)]Gal(b1-3)GlcNAc(b1-3)GalNAc", "summary_of_the_method": "as §1"}, "[16]": {"molecular_target": "Fuc(a1-2)[GalNAc(a1-3)]Gal(b1-3)GlcNAc(b1-6)GalNAc", "summary_of_the_method": "as §1"}, "[17]": {"molecular_target": "Fuc(a1-2)[GalNAc(a1-3)]Gal(b1-4)Glc", "summary_of_the_method": "as §1"}, "[18]": {"molecular_target": "Fuc(a1-2)[GalNAc(a1-3)]Gal(b1-4)GlcNAc", "summary_of_the_method": "as §1"}, "[19]": {"molecular_target": "Fuc(a1-2)[GalNAc(a1-3)]Gal(b1-4)GlcNAc(b1-2)Man", "summary_of_the_method": "as §1"}, "[20]": {"molecular_target": "Fuc(a1-2)[GalNAc(a1-3)]Gal(b1-4)GlcNAc(b1-2)Man(a1-3)[Fuc(a1-2)[GalNAc(a1-3)]Gal(b1-4)GlcNAc(b1-2)Man(a1-6)]Man(b1-4)GlcNAc(b1-4)GlcNAc", "summary_of_the_method": "as §1"}, "[21]": {"molecular_target": "Fuc(a1-2)[GalNAc(a1-3)]Gal(b1-4)GlcNAc(b1-2)Man(a1-3)[Fuc(a1-2)[GalNAc(a1-3)]Gal(b1-4)GlcNAc(b1-2)Man(a1-6)]Man(b1-4)GlcNAc(b1-4)[Fuc(a1-6)]GlcNAc", "summary_of_the_method": "as §1"}, "[22]": {"molecular_target": "Fuc(a1-2)[GalNAc(a1-3)]Gal(b1-4)GlcNAc(b1-3)Gal(b1-4)GlcNAc", "summary_of_the_method": "as §1"}, "[23]": {"molecular_target": "Fuc(a1-2)[GalNAc(a1-3)]Gal(b1-4)GlcNAc(b1-3)Gal(b1-4)GlcNAc(b1-3)Gal(b1-4)GlcNAc", "summary_of_the_method": "as §1"}, "[24]": {"molecular_target": "Fuc(a1-2)[GalNAc(a1-3)]Gal(b1-4)GlcNAc(b1-3)GalNAc", "summary_of_the_method": "as §1"}, "[25]": {"molecular_target": "Fuc(a1-2)[GalNAc(a1-3)]Gal(b1-4)GlcNAc(b1-3)[Fuc(a1-2)[GalNAc(a1-3)]Gal(b1-4)GlcNAc(b1-6)]GalNAc", "summary_of_the_method": "as §1"}, "[26]": {"molecular_target": "Fuc(a1-2)[GalNAc(a1-3)]Gal(b1-4)GlcNAc(b1-6)GalNAc", "summary_of_the_method": "as §1"}, "[27]": {"molecular_target": "Fuc(a1-2)[GalNAc(a1-3)]Gal(b1-4)[Fuc(a1-3)]GlcNAc", "summary_of_the_method": "as §1"}, "[28]": {"molecular_target": "Fuc(a1-2)[GalNAc(a1-3)]Gal(b1-4)[Fuc(a1-3)]GlcNAc(b1-3)GalNAc", "summary_of_the_method": "as §1"}, "[29]": {"molecular_target": "Fuc(a1-2)[GalNAc(a1-4)]Gal(b1-4)GlcNAc", "summary_of_the_method": "as §1"}, "[30]": {"molecular_target": "Fuc(a1-2)[GalNAc(b1-3)]Gal", "summary_of_the_method": "as §1"}}, "note": "Some of the results follow.", "data": [{"binder": "FliC (Pseudomonas aeruginosa), P72151 (protein) MALTVNTNIASLNTQRNLNASSNDLNTSLQRLTTGYRINSAKDDAAGLQISNRLSNQISGLNVATRNANDGISLAQTAEGALQQSTNILQRIRDLALQSANGSNSDADRAALQKEVAAQQAELTRISDTTTFGGRKLLDGSFGTTSFQVGSNAYETIDISLQNASASAIGSYQVGSNGAGTVASVAGTATASGIASGTVNLVGGGQVKNIAIAAGDSAKAIAEKMDGAIPNLSARARTVFTADVSGVTGGSLNFDVTVGSNTVSLAGVTSTQDLADQLNSNSSKLGITASINDKGVLTITSATGENVKFGAQTGTATAGQVAVKVQGSDGKFEAAAKNVVAAGTAATTTIVTGYVQLNSPTAYSVSGTGTQASQVFGNASAAQKSSVASVDISTADGAQNAIAVVDNALAAIDAQRADLGAVQNRFKNTIDNLTNISENATNARSRIKDTDFAAETAALSKNQVLQQAGTAILAQANQLPQAVLSLLR", "values": [{"measurement": "glycan array binding signal (z-score)", "setting": "[1]", "result": -0.158}, {"measurement": "glycan array binding signal (z-score)", "setting": "[2]", "result": -0.147}, {"measurement": "glycan array binding signal (z-score)", "setting": "[3]", "result": -0.098}, {"measurement": "glycan array binding signal (z-score)", "setting": "[4]", "result": -0.26}, {"measurement": "glycan array binding signal (z-score)", "setting": "[5]", "result": -0.172}, {"measurement": "glycan array binding signal (z-score)", "setting": "[6]", "result": -0.132}, {"measurement": "glycan array binding signal (z-score)", "setting": "[7]", "result": -0.228}, {"measurement": "glycan array binding signal (z-score)", "setting": "[8]", "result": -0.105}, {"measurement": "glycan array binding signal (z-score)", "setting": "[9]", "result": -0.06}, {"measurement": "glycan array binding signal (z-score)", "setting": "[10]", "result": -0.142}, {"measurement": "glycan array binding signal (z-score)", "setting": "[11]", "result": -0.139}, {"measurement": "glycan array binding signal (z-score)", "setting": "[12]", "result": -0.063}, {"measurement": "glycan array binding signal (z-score)", "setting": "[13]", "result": -0.1}, {"measurement": "glycan array binding signal (z-score)", "setting": "[14]", "result": -0.212}, {"measurement": "glycan array binding signal (z-score)", "setting": "[15]", "result": -0.175}, {"measurement": "glycan array binding signal (z-score)", "setting": "[16]", "result": 2.71}, {"measurement": "glycan array binding signal (z-score)", "setting": "[17]", "result": -0.232}, {"measurement": "glycan array binding signal (z-score)", "setting": "[18]", "result": -0.147}, {"measurement": "glycan array binding signal (z-score)", "setting": "[19]", "result": 0.454}, {"measurement": "glycan array binding signal (z-score)", "setting": "[20]", "result": -0.1}, {"measurement": "glycan array binding signal (z-score)", "setting": "[21]", "result": -0.174}, {"measurement": "glycan array binding signal (z-score)", "setting": "[22]", "result": -0.129}, {"measurement": "glycan array binding signal (z-score)", "setting": "[23]", "result": -0.186}, {"measurement": "glycan array binding signal (z-score)", "setting": "[24]", "result": -0.21}, {"measurement": "glycan array binding signal (z-score)", "setting": "[25]", "result": -0.127}, {"measurement": "glycan array binding signal (z-score)", "setting": "[26]", "result": -0.161}, {"measurement": "glycan array binding signal (z-score)", "setting": "[27]", "result": -0.212}, {"measurement": "glycan array binding signal (z-score)", "setting": "[28]", "result": -0.134}, {"measurement": "glycan array binding signal (z-score)", "setting": "[29]", "result": -0.188}, {"measurement": "glycan array binding signal (z-score)", "setting": "[30]", "result": -0.175}]}]}
